Our source for the survival values is PubChem BioAssay AID463173 (ICCB-Longwood Screening Facility, Harvard Medical School, 2010).

The campaign covered roughly 52,000 compounds. About 4,300 (8.3%) were called active. No stated cut-off is given here; in the data, active means survival mostly below about 52% (no sharp cut-off); inactive means mostly above about 56%. Some of the results follow.

In this assay the test system is DeltatarO mutant. As to the kind of experiment: growth inhibition of S. aureus wild type versus tarO mutant, primary screen, teichoic acid synthesis inhibitors, RN4220, OD600 (AID 463173). The conditions noted are these: OD600, 18 h, active compounds read low, screened at 18.75 µg/mL (by protocol).
Take `CCCCn1c(SCC(=O)Nc2ccc(F)cc2)nc2c(sc3ccccc32)c1=O`: the survival is inactive: 94%. Consider `CC(C)c1ccc(NC(=O)Cn2nnc(C(=O)NCc3cccs3)c2N)cc1`, for which the survival is inactive: 112%. With `Cc1ccc(O)c(C2=Nc3ccccc3N=C(c3cccc(F)c3)C2)c1`, the survival was inactive: 121%.

With `O=C(Nc1ccc(C(=O)N2CCN(c3ccc(Cl)cc3)CC2)cc1)c1nsc2ccccc12`, the survival is inactive: 72%.

With `Cc1ccc2oc(-c3cc(NC(=O)c4cccs4)cc(C)c3O)nc2c1`, the survival was inactive: 138%.

As to `COc1ccc(Br)cc1CNC(=O)C1COc2ccccc2C1` (stereo unspecified), the survival was inactive: 49%. For the compound `CCOCN(C(=O)Cn1cnc2cc(C)c(C)cc21)c1c(C)cccc1CC`, the survival is inactive: 50%. For the compound `CCc1ccccc1NC(=O)c1cc(-c2ccc3c(c2)OCO3)on1`, the survival is inactive: 147%.

As to `CCOc1ccc(/C=C/c2nc(C#N)c(N3CCN(c4ccccc4)CC3)o2)cc1`, the survival is inactive: 77%. On to `CC1CCCCN1C(=O)CN1CCN(C)CC1` (stereo unspecified), for which the survival was inactive: 93%. The figure for `CCOc1ccc(N(CC)S(=O)(=O)N2CCCC(C(=O)NCCc3ccccc3OC)C2)cc1` (stereo unspecified) is inactive: 80%. The figure for `CC1CCCCN1C(=O)CSc1nnc(-c2ccccc2Cl)o1` (stereo unspecified) is inactive: 74%; for `COc1ccc(-c2cn3nc(N4CCC(C(=O)Nc5ccc(C)cc5)CC4)sc3n2)cc1` it is inactive: 120%. Turning to `Cc1cccc(Oc2coc3cc(OCC(=O)NC4CCCCC4)ccc3c2=O)c1`, the survival was inactive: 48%. With `CCOC(=O)c1oc2c(c1C)/C(=N/O)CCC2`, the survival was inactive: 93%. For the compound `CN(C)c1cc[n+](Cc2ccccc2)cc1`, the survival is inactive: 99%. `CCc1ccc(-n2nc(C)c3c(C(=O)Nc4cc(C)ccc4C)cc(C)nc32)cc1`: the survival is inactive: 60%.

Regarding `CCN(CC)CC(=O)Nc1nc2ccc(OC)cc2s1`, the survival is inactive: 76%. Consider `CCOc1ccccc1CNC(=O)C1CCCN(S(=O)(=O)c2ccc3c(ccn3C)c2)C1` (stereo unspecified), for which the survival was inactive: 70%. The figure for `COC(=O)c1sc2cccc(F)c2c1S(=O)(=O)N1CCN(c2ccc(C)cc2C)CC1` is inactive: 102%; for `CC1CCN(S(=O)(=O)c2nnc(NC(=O)c3cccc(F)c3)s2)CC1` it is active: 31%.

Regarding `COc1ccccc1N1CCN(c2cc(C)nc3nc(-c4ccc(Cl)cc4)nn23)CC1`, the survival was active: 38%.

Consider `COc1ccc(OC)c(S(=O)(=O)NCCc2csc3nc(-c4ccccc4)nn23)c1`, for which the survival is active: -1%.

On to `Cc1ccc(NC(=O)c2cc(S(=O)(=O)N3CCCC3)c[nH]2)c(C)c1`, for which the survival was inactive: 105%. The figure for `Cc1cccc(N2CCN(C(=O)c3ccc4c(c3)c(C)c(C)n4C)CC2C)c1` (stereo unspecified) is inactive: 104%; for `COc1nc(-c2ccc(C)cc2)ccc1-c1noc(-c2ccc(C(C)(C)C)cc2)n1` it is inactive: 47%.
